{"source": "PubChem BioAssay AID662", "about": "(National Center for Advancing Translational Sciences (NCATS), 2007)", "note": "Values joined by “and” are separate entries in the source; they are usually repeats but may differ in a detail not shown here. Identical values can stand only once. The campaign covered roughly 71,000 compounds. About 1,800 (2.5%) were called active. Inconclusive results, whose numbers are uncertain, are shown with a selection of clear calls. The call rests on the fitted dose curve; in most records, active means well fitted activation curve with a large enough effect in the signal ratio, with a control signal flat (not every such curve was filed as active); inconclusive means small, poorly fitted or top-dose-only effect, or effect the other way, or a change in a side signal; inactive means flat fitted curve, though single readings scatter; the % refers to the signal ratio. Potencies of inconclusive entries are doubtful fits and often do not repeat. Potency means the concentration at half of the fitted maximal effect; tags describe the fitted curve by direction and shape."}
{"assay": "Cell signaling CRE-BLA (Fsk stim); on activity change, negative = inhibition: % of control where 0% means no effect", "details": "CHO CRE-bla reporter (cAMP response element driving beta-lactamase), forskolin EC10, beta-lactamase ratio; activity change, negative = inhibition: at 38.2 µM (top of the series) unless noted", "how_it_was_run": "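Modulation of forskolin-driven signalling is measured in CHO cells carrying a CRE-controlled beta-lactamase reporter. Cells are stimulated with EC10 NKH 477 in the presence of titrated compound for 3 h at 37 °C, then loaded with CCF4 for 2 h at room temperature.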"}
{"compound": "COc1ccc(-n2c(=O)c(-c3cc(F)cc(F)c3)nc3cnc(N4CCNCC4)nc32)cc1", "Potency": "inconclusive: 2.51 µM [rising, full curve]"}
{"compound": "CCN1CCN(c2ncc3c(n2)CC(c2cc(OC)c(OC)c(OC)c2)CC3=O)CC1", "note": "(stereo not given)", "activity change, negative = inhibition": "inactive: 6.11%"}
{"compound": "CCOC(=O)c1cnc2c(cnn2CC)c1NN=C(C)C", "Potency": "active: 12.6 µM and active: 1 µM"}
{"compound": "CCn1c(SCC(=O)OCC(=O)N2c3ccccc3NC(=O)C2(C)C)nnc1-c1ccco1", "activity change, negative = inhibition": "inconclusive: -8.62%"}
{"compound": "CCOC(=O)CSC1=Nc2ccccc2C2=NC(CC(=O)NCc3ccc4c(c3)OCO4)C(=O)N12", "note": "(stereo not given)", "activity change, negative = inhibition": "inactive: 8.01%"}
{"compound": "O=C(CN1C(=O)c2ccccc2C1=O)Nc1ccc(-c2nc3ccccc3o2)cc1", "activity change, negative = inhibition": "inactive: -8.45%"}
{"compound": "COc1cc(-c2c(C#N)c(N)nc3c2c(C)nn3-c2ccc(C)c(C)c2)cc(OC)c1OC", "Potency": "active: 2.51 µM"}
{"compound": "COCCn1c(=O)c(-c2ccccc2)nc2cnc(N(C)C)nc21", "Potency": "inconclusive: 10 µM [rising, partial curve]"}
{"compound": "Clc1c(CSc2nc3ccccc3o2)nc2sccn12", "activity change, negative = inhibition": "inconclusive: 58%"}
{"compound": "O=C1NCCCC2c3c(cc(Br)c(O)c3Br)OC12N1CCOCC1", "note": "(stereo not given)", "Potency": "inconclusive: 0.501 µM [rising, full curve, poor fit]"}
{"compound": "COC(=O)[C@@]1(Cc2ccc(F)cc2)[C@H]2c3cc(C(=O)N4CCCC4)n(CCc4c[nH]c5cc(F)ccc45)c3C[C@H]2CN1C(=O)c1ccccc1", "activity change, negative = inhibition": "inactive: -15.1%"}
{"compound": "CN=c1scc(C)n1/N=C/c1ccc(O)cc1", "activity change, negative = inhibition": "inactive: 0.134%"}
{"compound": "O=C(Nc1cccnc1)c1cnn2c(C(F)F)cc(C3CC3)nc12", "Potency": "active: 7.94 µM"}
{"compound": "CN1CCN(c2ncc3nc(-c4cccc(C#N)c4)c(=O)n(C[C@H]4CCCO4)c3n2)CC1", "Potency": "active: 10 µM"}
{"compound": "CCCCN(CC)CCCNC(=O)CC1Nc2ccccc2NC1=O", "note": "(stereo not given)", "activity change, negative = inhibition": "inactive: -27.2%"}
{"compound": "Cc1onc(-c2ccccc2)c1C(=O)n1cccn1", "activity change, negative = inhibition": "inconclusive: 14.8%"}
{"compound": "O=C(COc1ccccc1)Nc1nn[nH]n1", "activity change, negative = inhibition": "inconclusive: -11.3%"}
{"compound": "COC(=O)[C@@]1(Cc2ccc(OC)cc2)[C@H]2c3cc(C(=O)N4CCCC4)n(Cc4ccc(C)o4)c3C[C@H]2CN1C(=O)c1ccccc1", "activity change, negative = inhibition": "inactive: 3.21%"}
{"compound": "Cc1ccc(-n2c(SCC(=O)Nc3ccc4c(c3)OCO4)nnc2-c2cccs2)cc1", "activity change, negative = inhibition": "inconclusive: 6.15%"}
{"compound": "CCOC(=O)c1c(C(C)(C)C)oc2ccc(OCC#N)cc12", "Potency": "inconclusive: 6.31 µM [rising, partial curve]"}
{"compound": "CCOC(=O)c1sc2nc(CC(=O)OC)nc(NCc3ccco3)c2c1C", "Potency": "active: 10 µM"}
{"compound": "Fc1cccc(-n2c(-c3ccco3)nc3nc4ccccc4nc32)c1", "activity change, negative = inhibition": "inactive: -9.5%"}
{"compound": "CCC(C(=O)NCc1ccco1)N(C(=O)CNS(=O)(=O)c1ccc(C)cc1)c1ccccc1OC", "note": "(stereo not given)", "activity change, negative = inhibition": "inactive: -7.53%"}
{"compound": "CCOc1ccc(S(=O)(=O)NCCC(=O)NC2=NCCS2)cc1", "Potency": "inconclusive: 3.16 µM [falling, single point]"}
{"compound": "CCOC(=O)NC(Nc1cc(C)ccn1)(C(F)(F)F)C(F)(F)F", "activity change, negative = inhibition": "inactive: 3.64%"}
{"compound": "COCCn1c(=O)c(C)nc2cncnc21", "activity change, negative = inhibition": "inactive: 10.9%"}
{"compound": "CC(C)C(c1nnnn1Cc1ccco1)N1CCN(C2CCCC2)CC1", "note": "(stereo not given)", "activity change, negative = inhibition": "inactive: -15.8%"}
{"compound": "N[C@@H](Cc1c[nH]c2ccc([N+](=O)[O-])cc12)C(=O)O", "activity change, negative = inhibition": "inactive: -0.238% [at 7.6 µM]"}
{"compound": "Cc1nc2ccc(Br)cn2c(=O)c1Cl", "Potency": "inconclusive: 15.8 µM [rising, single point]"}
{"compound": "CCCCCCn1c(N2CCC(C(N)=O)CC2)nc2c1c(=O)n(C)c(=O)n2C", "activity change, negative = inhibition": "inconclusive: 29.9%"}
{"compound": "CC1(C)Cc2c(C#N)c(NCCCO)nc(-c3ccccc3)c2CO1", "Potency": "active: 10 µM"}
{"compound": "CCOC(=O)c1sc(NC(=O)COC(=O)Cn2cnc3ccccc32)c(C(=O)OCC)c1C", "Potency": "inconclusive: 7.94 µM [rising, partial curve]"}
{"compound": "Cc1ccc2[nH]c(=O)c(CN(CCN3CCOCC3)C(=O)Nc3ccc(F)cc3)cc2c1", "Potency": "inconclusive: 12.6 µM [rising, partial curve]"}
{"compound": "Brc1ccc(C2=Nn3c(nnc3-c3cccnc3)SC2)s1", "activity change, negative = inhibition": "inconclusive: -9.47%"}
{"compound": "CCn1c(O)c(C=Nc2ccccc2)oc1=S", "activity change, negative = inhibition": "inactive: 9.13%"}
{"compound": "CCC(=O)N1CCc2cc(S(=O)(=O)NCCN3CCCCC3CC)ccc21", "note": "(stereo not given)", "Potency": "inconclusive: 1 µM [rising, full curve, poor fit]"}
{"compound": "COc1ccc(-c2nnc(CSc3nc4ccccc4c(=O)n3C)o2)cc1OC", "Potency": "inconclusive: 1.26 µM [rising, partial curve]"}
{"compound": "COc1cc(C2c3c(oc4cc(C)c(C)cc4c3=O)C(=O)N2c2cc(C)ccn2)ccc1O", "note": "(stereo not given)", "Potency": "inconclusive: 0.398 µM [rising, partial curve]"}
{"compound": "CCCCCC(=O)N1CCN(CCN=CC2=C(O)CC(c3ccco3)CC2=O)CC1", "note": "(stereo not given)", "Potency": "inconclusive: 15.8 µM [falling, partial curve, poor fit]"}
{"compound": "Cc1ccc(CNC(=O)C2CCN(S(=O)(=O)c3c(C)noc3C)CC2)cc1", "activity change, negative = inhibition": "inconclusive: -21.1%"}
{"compound": "CC(C)Oc1ccc(C2/C(=C(/O)c3ccc(F)cc3)C(=O)C(=O)N2CCCN(C)C)cc1", "note": "(stereo not given)", "Potency": "inconclusive: 10 µM [rising, partial curve]"}
{"compound": "CCc1cc(=O)oc2c(C)c(O)c(CN3CCCCC3)cc12", "Potency": "inconclusive: 10 µM [rising, partial curve]"}
{"compound": "COc1cc(C(=O)N2CCC(C(=O)Nc3cccc(C(C)=O)c3)CC2)cc(OC)c1OC", "Potency": "inconclusive: 12.6 µM [rising, single point]"}
{"compound": "CCOC(=O)CSc1nc2ccccc2c(=O)n1CC1CCCO1", "note": "(stereo not given)", "activity change, negative = inhibition": "inconclusive: 17.7%"}
{"compound": "Cc1nc2cc(Cl)ccc2n1CCO", "activity change, negative = inhibition": "inactive: -4.42%"}
{"compound": "CCOC(=O)c1c(C)nc2ccccn12", "Potency": "inconclusive: 12.6 µM [rising, partial curve]"}
{"compound": "CCC(Oc1ccccc1)C(=O)Nc1ccccc1OC", "note": "(stereo not given)", "activity change, negative = inhibition": "inactive: 2.48%"}
{"compound": "CC(=O)NCCNc1nc(-c2ccccc2C)nc2ccccc12", "Potency": "inconclusive: 10 µM [rising, partial curve]"}
{"compound": "O=C(NCC(=O)N(CCN1CCOCC1)C(C(=O)NC1CCCC1)c1cccs1)c1ccco1", "note": "(stereo not given)", "activity change, negative = inhibition": "inconclusive: -13.9%"}
{"compound": "COC(=O)c1c(NC(=O)c2nc3ncccn3n2)sc(C(=O)N(C)C)c1C", "activity change, negative = inhibition": "inconclusive: 13.2% [cytotoxic]"}
